Assay results: PubChem BioAssay (NCATS)
“And” between values parts separate entries of the source, which are not always exact repeats. Equal entries are not always repeated. Inconclusive results, whose numbers are uncertain, are shown with a selection of clear calls. Where the call is inconclusive, the potency comes from a doubtful curve fit. The source made the active and inactive calls. Calls follow the shape of the dose curve; as a rule, active = well fitted curve in the direction sought with a large enough effect; inconclusive = small, poorly fitted or top-dose-only effect, or another doubt; inactive = no such curve, though single readings can be large; an effect the other way counts as inactive or inconclusive.

Legend:
[1] = Viability qHTS for spleen associated tyrosine kinase inhibitor (SYKi) drug resistant MV4-11 cells (AID 1963824); also: nearly all actives have a fitted effect of over 35% in size
Method in brief: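 SYK-inhibitor-resistant MV4-11 AML cells were seeded at 500 per well onto compound and cultured 72 hours (37 °C, 5% CO2). CellTiter-Glo was then added, and after 10 min at room temperature, luminescence gave viability.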

[2] = Cellular viability qHTS for adrenocortical cancer (ACC) cell line SW-13 (AID 1963989); conditions: SW-13 ACC cells viability, CellTiter-Glo, 48 h; activity (max response): stronger effect = lower value; also: nearly all actives have a fitted effect of over 65% in size;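 as to activity (max response): cells grown in serum-free medium with ITS supplement; % is scaled to controls: 0 for no effect and ±100 for the full control effect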
Method in brief: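 Viability was read as CellTiter-Glo luminescence after 48 h compound treatment (up to 46 uM final) of SW-13 cells grown serum-free; titration curves were fit with a four-parameter logistic model to give IC50 and efficacy.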

[3] = Cellular viability qHTS for adrenocortical cancer (ACC) cell line NCI-H295R (AID 1963990); conditions: CellTiter-Glo ATP luminescence, 48 h; activity change, negative = viability loss: at 46.1 µM (top of the series); also: nearly all actives have a fitted effect of over 60% in size;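 as to activity change, negative = viability loss: 0% = DMSO only wells and -100% = full killing with cytotoxic reference compound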
Method in brief: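 CellTiter-Glo ATP luminescence, read 48 h after compound addition, measured viability of NCI-H295R adrenocortical cells grown serum-free with ITS. Final concentrations spanned up to 46 uM. Data normalized to DMSO and doxorubicin, fitted for IC50 and maximal response.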
Potency is read from the fitted curve at half-maximal effect; tags tell the direction and shape of the fitted curve.

| Compound | Potency [1] | Potency [2] | Potency [3] | activity (max response) [2] |
| --- | --- | --- | --- | --- |
| CN1CCC(Nc2ncc3ncnc(Nc4ccc(F)c(Cl)c4)c3n2)CC1 | active: 18.8 µM and active: 11.6 µM | active: 18.4 µM | inconclusive: 29.1 µM [cytotoxic, single point] |  |
| CC1(N)CCN(c2cccnc2NC(=O)c2nc(-c3ncccc3C(F)(F)F)cnc2N)CC1 | active: 11.8 µM | active: 17.8 µM | inconclusive: 35.5 µM [cytotoxic, single point] |  |
| OCC(O)CN1CCN(c2ccccc2)CC1 (stereo not drawn) | inconclusive: 29.9 µM [cytotoxic, single point] and inactive |  |  | inactive: -5.47% |
| O=C(c1c(F)ccc(NS(=O)(=O)N2CC[C@@H](F)C2)c1F)c1c[nH]c2ncc(-c3cnc(C4CC4)nc3)cc12 | active: 8.2 µM | inconclusive: 25.1 µM [cytotoxic, single point] | inconclusive: 20 µM [cytotoxic, partial curve, poor fit] |  |
| Cc1oc(-c2ccccc2)nc1CCC(=O)c1ccc(CC2SC(=O)NC2=O)cc1 (stereo not drawn) | inconclusive: 33.5 µM [cytotoxic, single point] |  | inconclusive: 16.4 µM [cytotoxic, partial curve, poor fit] | inactive: -12.1% |
| N[C@@H](COP(=O)(O)O)C(=O)O | inactive |  | inconclusive: 15.9 µM [cytotoxic, single point] | inactive: -3.07% |
| CC(C)=CCNc1ncnc2c1ncn2[C@@H]1O[C@H](CO)[C@@H](O)[C@H]1O | active: 0.58 µM | inconclusive: 20.6 µM [cytotoxic, single point] | active: 7.31 µM |  |
| O=C(CCc1ccc(O)cc1)c1c(O)cc(O)cc1O[C@@H]1O[C@H](CO)[C@@H](O)[C@H](O)[C@H]1O | inactive |  | inactive | inactive: 0.618% |
| C#C[C@]1(O)CC[C@H]2[C@@H]3CCC4=CC(=O)CC[C@@H]4[C@H]3CC[C@@]21C | inconclusive: 33.5 µM [cytotoxic, single point] |  |  | inactive: 2.7% |
| Cc1cc(C)c(CNC(=O)c2cc(-c3ccc(N4CCN(C)CC4)nc3)cc3c2c(C)cn3C(C)C)c(=O)[nH]1 | active: 14.8 µM and active: 16.6 µM | inconclusive: 35.5 µM [cytotoxic, partial curve, poor fit] | inconclusive: 25.1 µM [cytotoxic, partial curve, poor fit] and inconclusive: 35.5 µM [cytotoxic, single point] |  |
| Cc1c(C)c2c(c(C)c1OC(=O)CCC(=O)OCCO)CC[C@@](C)(CCC[C@H](C)CCC[C@H](C)CCCC(C)C)O2 | inactive | active: 18.4 µM |  |  |
| O=c1[nH]c2ccccc2n1CCCN1CCN(C(c2ccccc2)c2ccccc2)CC1 | active: 11.9 µM | inconclusive: 20.6 µM [cytotoxic, single point] | inconclusive: 20.6 µM [cytotoxic, single point] |  |
| [2H]c1nc(C)nc([2H])c1-c1cc(NC[C@@H](C)c2cccc3c(C(=O)NC)ccnc23)ncn1 | inconclusive: 18.6 µM [cytotoxic, partial curve, poor fit] |  | inactive | inactive: 14.2% |
| CC(=O)O[C@]1(C(C)=O)CC[C@H]2[C@@H]3C[C@H](C)C4=CC(=O)CC[C@]4(C)[C@H]3CC[C@@]21C | active: 9.44 µM and active: 13.2 µM | inconclusive: 3.66 µM [cytotoxic, single point] | inconclusive: 6.51 µM [cytotoxic, single point] |  |
| CC(=O)c1cc2ccccc2s1 | inconclusive: 3.76 µM [cytotoxic, single point] |  |  | inactive: 15.3% |
| CN1CCN(C2=Nc3cc(F)ccc3Cc3ccccc32)CC1 | inconclusive: 23.7 µM [cytotoxic, partial curve] | inconclusive: 18.4 µM [cytotoxic, single point] |  |  |
| CSc1ccc2c(c1)C(N1CCN(C)CC1)Cc1ccccc1S2 (stereo not drawn) | active: 26.6 µM | inconclusive: 18.4 µM [cytotoxic, single point] | inconclusive: 29.1 µM [cytotoxic, single point] |  |
| COC1=C(OC)C(=O)C(C/C=C(\C)CC/C=C(\C)CC/C=C(\C)CC/C=C(/C)CC/C=C(\C)CC/C=C(\C)CC/C=C(\C)CC/C=C(\C)CC/C=C(\C)CCC=C(C)C)=C(C)C1=O | inactive |  |  | inactive: 3.03% |
| Nc1ccc(C(=O)Oc2ccccc2)c(O)c1 | inconclusive: 33.5 µM [cytotoxic, single point] |  |  | inactive: -6.48% |
| C[C@@H]1CC(=O)Nc2cccc(-c3ccc4c(c3)c(-c3cnn(C)c3)nn4C)c2N1 | active: 1.32 µM |  |  | inactive: -3.66% |
| c1ccc(-c2cc(CCC3CCNCC3)c3ccccc3n2)cc1 | active: 6.61 µM | inconclusive: 28.2 µM [cytotoxic, single point] |  |  |

| Compound | Potency [1] | Potency [2] | Potency [3] | activity (max response) [2] |
| --- | --- | --- | --- | --- |
| C=Cc1cc(O)cc2nc(-c3ccc(O)c(F)c3)oc12 | inconclusive: 25.9 µM [cytotoxic, single point] | inconclusive: 25.1 µM [cytotoxic, single point] | inconclusive: 35.5 µM [cytotoxic, single point] |  |
| NC1CCCN(c2c(/C=C3\SC(=O)NC3=O)cccc2-c2ccccc2)C1 (stereo not drawn) | active: 8.2 µM and active: 13.2 µM | inconclusive: 35.5 µM [cytotoxic, single point] | inconclusive: 14.1 µM [cytotoxic, partial curve, poor fit] |  |
| CC(CN(C)C)CN1c2ccccc2CCc2ccccc21 (stereo not drawn) | inconclusive: 33.5 µM [cytotoxic, single point] | inconclusive: 18.4 µM [cytotoxic, single point] | inconclusive: 29.1 µM [cytotoxic, single point] |  |
| Cc1cccc(N(C)C(=S)Oc2ccc3c(c2)C2CCC3C2)c1 (stereo not drawn) | inactive | inconclusive: 29.1 µM [cytotoxic, single point] | inconclusive: 7.31 µM [cytotoxic, partial curve, poor fit] |  |
| Nc1ccccc1N | inconclusive: 9.69 µM [cytotoxic, partial curve] | inconclusive: 35.5 µM [cytotoxic, partial curve] | inconclusive: 56.2 µM [cytotoxic, single point] |  |
| Cc1cccc(C)c1OCC(C)N (stereo not drawn) | inactive |  | inactive | inactive: 2.1% |
| O=C(O)C(Cc1cc(I)c(O)c(I)c1)c1ccccc1 (stereo not drawn) | inactive | inconclusive: 29.1 µM [cytotoxic, single point] |  |  |
| CCOC(=O)N1CCC(n2c(=O)[nH]c3cc(Cl)ccc32)CC1 | inconclusive: 15 µM [cytotoxic, partial curve, poor fit] | inconclusive: 14.6 µM [cytotoxic, partial curve] | inconclusive: 8.2 µM [cytotoxic, partial curve, poor fit] |  |
| CCOC(=O)N1CCN(/[N+]([O-])=N/Oc2ccc([N+](=O)[O-])cc2[N+](=O)[O-])CC1 | active: 2.63 µM | inconclusive: 17.8 µM [cytotoxic, partial curve] | active: 22.4 µM |  |
| CC(C)OC(=O)c1cc2c(OCC(O)CNC(C)(C)C)cccc2[nH]1 (stereo not drawn) | inconclusive: 15 µM [cytotoxic, partial curve, poor fit] |  | inconclusive: 41.1 µM [cytotoxic, partial curve, poor fit] |  |
| O=C(O)c1cc(-c2ccccc2)nc2ccccc12 | inconclusive: 30.9 µM [cytotoxic, partial curve] and inactive and inconclusive: 4.6 nM [cytotoxic, full curve, poor fit] | inconclusive: 31.6 µM [cytotoxic, single point] | inconclusive: 63.1 µM [cytotoxic, single point] |  |
| CCOC(=O)Cn1cccc1-c1nc(-c2ccc(OC)cc2)c(-c2ccc(OC)cc2)s1 | inconclusive: 10.6 µM [cytotoxic, partial curve] |  | inconclusive: 29.1 µM [cytotoxic, single point] |  |
| O=C(Nc1ccc(OC(F)(F)Cl)cc1)c1cnc(N2CC[C@@H](O)C2)c(-c2ccn[nH]2)c1 | active: 6.61 µM |  | inconclusive: 31.6 µM [cytotoxic, single point] |  |
| Cc1c[nH]c2ccccc12 | inconclusive: 5.31 µM [cytotoxic, partial curve, poor fit] |  | inconclusive: 23.1 µM [cytotoxic, single point] |  |
| Cc1cccc(C)c1NC(=O)CN(CC(=O)O)CC(=O)O | inactive |  | inactive |  |
| O=C(O)c1cc(O)c(O)c(O)c1 | active: 13.3 µM |  | inactive |  |
| CN(C)CCN(Cc1cccs1)c1ccccn1 | inactive |  | inactive |  |
| C/C(=N\NC(=O)c1cccc(S(=O)(=O)N2CCOCC2)c1)c1cc(Cl)ccc1O | active: 0.742 µM |  | inconclusive: 5.62 µM [cytotoxic, full curve, poor fit] |  |
| CC(C)NCC(O)c1cc(O)cc(O)c1 (stereo not drawn) | inactive |  | inactive |  |
| CNC(=O)c1c(C)oc2cc(Oc3ncnc4cc(OC)c(OC)cc34)ccc12 | inconclusive: 11.8 µM [cytotoxic, partial curve, poor fit] |  | inactive |  |
